For assay [1], the target named is T1, HMHA1* BDA1* ST-CDAN1 (human) (UniProt Q8IWY9).
T1 sequence: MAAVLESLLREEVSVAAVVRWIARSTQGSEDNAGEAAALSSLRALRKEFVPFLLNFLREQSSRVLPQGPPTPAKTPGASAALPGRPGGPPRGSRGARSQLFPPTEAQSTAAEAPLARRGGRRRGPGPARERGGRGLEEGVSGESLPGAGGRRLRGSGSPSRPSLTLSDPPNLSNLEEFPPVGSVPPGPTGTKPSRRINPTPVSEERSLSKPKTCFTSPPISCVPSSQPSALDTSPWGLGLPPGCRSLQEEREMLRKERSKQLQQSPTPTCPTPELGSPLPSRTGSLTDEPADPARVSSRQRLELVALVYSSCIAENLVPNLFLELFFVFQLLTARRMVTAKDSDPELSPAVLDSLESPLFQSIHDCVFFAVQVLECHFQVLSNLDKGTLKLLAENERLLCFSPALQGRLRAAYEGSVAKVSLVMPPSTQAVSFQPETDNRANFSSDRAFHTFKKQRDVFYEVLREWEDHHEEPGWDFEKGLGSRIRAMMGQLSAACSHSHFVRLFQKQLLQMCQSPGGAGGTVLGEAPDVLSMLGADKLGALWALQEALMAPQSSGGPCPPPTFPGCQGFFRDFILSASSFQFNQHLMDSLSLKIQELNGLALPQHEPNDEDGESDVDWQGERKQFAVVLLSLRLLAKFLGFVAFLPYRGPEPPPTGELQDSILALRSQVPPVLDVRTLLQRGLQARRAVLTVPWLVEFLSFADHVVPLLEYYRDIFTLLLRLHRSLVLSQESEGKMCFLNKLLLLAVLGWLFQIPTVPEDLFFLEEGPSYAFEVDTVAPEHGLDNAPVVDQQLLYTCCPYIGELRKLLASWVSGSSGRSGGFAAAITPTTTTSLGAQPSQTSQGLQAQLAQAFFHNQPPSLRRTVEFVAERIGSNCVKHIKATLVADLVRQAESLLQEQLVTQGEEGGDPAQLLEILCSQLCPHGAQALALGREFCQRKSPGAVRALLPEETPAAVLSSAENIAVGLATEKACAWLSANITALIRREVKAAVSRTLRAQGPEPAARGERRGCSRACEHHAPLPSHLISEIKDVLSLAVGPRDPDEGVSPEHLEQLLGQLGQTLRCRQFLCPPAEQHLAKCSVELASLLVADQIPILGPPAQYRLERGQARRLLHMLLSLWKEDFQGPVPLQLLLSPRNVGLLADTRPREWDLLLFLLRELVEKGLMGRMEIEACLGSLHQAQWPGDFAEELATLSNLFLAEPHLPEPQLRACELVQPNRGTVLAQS
Briefly: pull-down; Strep-Tactin pulldown of ST-CDAN1 variants co-transfected with FLAG-tagged ASF1A or ASF1B variants in Flp-In 293 T-REx cells; immunoblotting; IP buffer with 1% Triton X-100, 1 hr at 4 °C. In general terms: Immunoblotting shows a protein as a band on a membrane.

Chains of the proteins cited; added tags and fusions are not shown. Lines headed by an entry give the natural chain unless they say otherwise; changes in a name come on top. A line that says so, or that is headed by a name, gives the form on record, which may keep a tag or linker.
UniProt Q9Y294: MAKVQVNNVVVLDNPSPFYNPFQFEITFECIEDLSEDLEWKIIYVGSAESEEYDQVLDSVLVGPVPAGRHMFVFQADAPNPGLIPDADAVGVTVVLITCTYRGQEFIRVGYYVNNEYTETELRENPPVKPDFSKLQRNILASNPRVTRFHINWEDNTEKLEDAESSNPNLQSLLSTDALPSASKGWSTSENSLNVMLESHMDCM
FLAG-ASF1A N > B (ASF1A with the NTD of ASF1B) (Q9Y294, form named): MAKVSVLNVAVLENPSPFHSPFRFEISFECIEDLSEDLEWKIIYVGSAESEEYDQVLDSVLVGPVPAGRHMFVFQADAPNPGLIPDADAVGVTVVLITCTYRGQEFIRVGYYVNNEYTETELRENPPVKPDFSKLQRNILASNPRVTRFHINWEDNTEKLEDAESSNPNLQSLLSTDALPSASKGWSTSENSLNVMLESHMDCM
UniProt Q9NVP2: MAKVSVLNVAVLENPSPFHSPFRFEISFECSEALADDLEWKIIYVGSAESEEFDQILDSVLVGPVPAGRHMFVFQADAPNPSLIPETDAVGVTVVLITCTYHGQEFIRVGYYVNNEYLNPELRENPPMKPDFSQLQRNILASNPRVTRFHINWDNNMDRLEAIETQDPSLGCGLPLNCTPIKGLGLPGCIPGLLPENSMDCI
FLAG-ASF1B N > A (ASF1B with the NTD of ASF1A) (Q9NVP2, form named): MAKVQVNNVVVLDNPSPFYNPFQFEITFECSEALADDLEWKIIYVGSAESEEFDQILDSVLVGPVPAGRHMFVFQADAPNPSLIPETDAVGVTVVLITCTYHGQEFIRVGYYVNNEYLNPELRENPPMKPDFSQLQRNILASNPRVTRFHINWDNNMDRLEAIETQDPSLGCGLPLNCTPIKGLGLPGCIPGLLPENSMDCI

For assay [2], the target named is T2, FLAG-tagged CDIN1 (F-CDIN1) (UniProt Q9Y2V0).
T2 sequence: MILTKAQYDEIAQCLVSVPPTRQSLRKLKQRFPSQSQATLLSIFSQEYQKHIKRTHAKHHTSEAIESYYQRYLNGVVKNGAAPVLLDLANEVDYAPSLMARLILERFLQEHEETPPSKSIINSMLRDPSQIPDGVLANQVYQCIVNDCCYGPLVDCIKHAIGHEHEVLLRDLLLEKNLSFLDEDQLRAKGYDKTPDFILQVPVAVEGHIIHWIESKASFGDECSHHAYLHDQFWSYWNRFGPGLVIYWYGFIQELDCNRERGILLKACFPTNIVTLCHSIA
Briefly: co-IP; anti-FLAG IP (first step of the tandem purification) from lysates of transiently transfected Expi293 cells; IP buffer with 1% Triton X-100, 4 °C; elution with 3xFLAG peptide; immunoblotting.

For assay [3], the target named is T1, HMHA1* BDA1* ST-CDAN1 (human). In words: pull-down; Strep-Tactin pulldown of transiently transfected ST-CDAN1 variants from Flp-In 293 T-REx lysates; endogenous ASF1A, ASF1B and CDIN1 detected by immunoblotting; IP buffer with 1% Triton X-100, 1 hr at 4 °C.

No constants are given. Whether binding was seen depends on the method and setting. Binding seen in cells or lysates may run through a third protein. Some results given as binding are weak or reduced against the parent protein; the word gives no strength. For some assays here: Tags and fused reporters may be left off the sequences shown.

For “FLAG-ASF1A N > B (ASF1A with the NTD of ASF1B) (from UniProt Q9Y294 1-204)”, the binding result in assay [1] is listed as “no binding”.

Take “FLAG-ASF1B N > A (ASF1B with the NTD of ASF1A) (from UniProt Q9NVP2 1-202)”: the binding entry in assay [1] is “binds”.

In the case of “FLAG-tagged ASF1A (F-ASF1A) (from UniProt Q9Y294 1-204)”, the binding entry in assay [1] is on record as “binds”.

As to “FLAG-tagged ASF1B (F-ASF1B) (from UniProt Q9NVP2 1-202)”, the binding result in assay [1] is given as “no binding”.

Turning to “endogenous ASF1A (from UniProt Q9Y294 1-204)”, the binding result in assay [2] and in assay [3] was “binds” in each case.

In the case of “endogenous ASF1B (from UniProt Q9NVP2 1-202)”, in assay [3], the binding entry was “no binding”.

B1: FLAG-tagged CDIN1 (F-CDIN1) (natural protein, UniProt Q9Y2V0 1-281, looked up)
chain: MILTKAQYDEIAQCLVSVPPTRQSLRKLKQRFPSQSQATLLSIFSQEYQKHIKRTHAKHHTSEAIESYYQRYLNGVVKNGAAPVLLDLANEVDYAPSLMARLILERFLQEHEETPPSKSIINSMLRDPSQIPDGVLANQVYQCIVNDCCYGPLVDCIKHAIGHEHEVLLRDLLLEKNLSFLDEDQLRAKGYDKTPDFILQVPVAVEGHIIHWIESKASFGDECSHHAYLHDQFWSYWNRFGPGLVIYWYGFIQELDCNRERGILLKACFPTNIVTLCHSIA
notes: C15orf41); cDNA synthesized by IDT; source: Expi293, transiently transfected, in lysate and purified in complexes (anti-FLAG, Strep-Tactin); not shown: 3xFLAG, N-terminal, kept
With B1, the binding entry in assay [2] is recorded as “binds”.

(Values after publication PMC11911400, “Mechanism of ASF1 engagement by CDAN1” (Nature Communications, 2025).)
